The text below walks through data of article PMC4336329 (PLoS ONE, 2015).

Hit rate of the full screen: of about 310,000 compounds, about 14,000 (4.5%) showed an effect of 50% or more. The effect is printed as a negative number. The list shows a part of the results.
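Further: peak tail current of the secondary pulse compared with the same well before compound.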

Sequence of human ether-à-go-go-related gene (hERG) potassium channel (Q12809 whole entry, looked up): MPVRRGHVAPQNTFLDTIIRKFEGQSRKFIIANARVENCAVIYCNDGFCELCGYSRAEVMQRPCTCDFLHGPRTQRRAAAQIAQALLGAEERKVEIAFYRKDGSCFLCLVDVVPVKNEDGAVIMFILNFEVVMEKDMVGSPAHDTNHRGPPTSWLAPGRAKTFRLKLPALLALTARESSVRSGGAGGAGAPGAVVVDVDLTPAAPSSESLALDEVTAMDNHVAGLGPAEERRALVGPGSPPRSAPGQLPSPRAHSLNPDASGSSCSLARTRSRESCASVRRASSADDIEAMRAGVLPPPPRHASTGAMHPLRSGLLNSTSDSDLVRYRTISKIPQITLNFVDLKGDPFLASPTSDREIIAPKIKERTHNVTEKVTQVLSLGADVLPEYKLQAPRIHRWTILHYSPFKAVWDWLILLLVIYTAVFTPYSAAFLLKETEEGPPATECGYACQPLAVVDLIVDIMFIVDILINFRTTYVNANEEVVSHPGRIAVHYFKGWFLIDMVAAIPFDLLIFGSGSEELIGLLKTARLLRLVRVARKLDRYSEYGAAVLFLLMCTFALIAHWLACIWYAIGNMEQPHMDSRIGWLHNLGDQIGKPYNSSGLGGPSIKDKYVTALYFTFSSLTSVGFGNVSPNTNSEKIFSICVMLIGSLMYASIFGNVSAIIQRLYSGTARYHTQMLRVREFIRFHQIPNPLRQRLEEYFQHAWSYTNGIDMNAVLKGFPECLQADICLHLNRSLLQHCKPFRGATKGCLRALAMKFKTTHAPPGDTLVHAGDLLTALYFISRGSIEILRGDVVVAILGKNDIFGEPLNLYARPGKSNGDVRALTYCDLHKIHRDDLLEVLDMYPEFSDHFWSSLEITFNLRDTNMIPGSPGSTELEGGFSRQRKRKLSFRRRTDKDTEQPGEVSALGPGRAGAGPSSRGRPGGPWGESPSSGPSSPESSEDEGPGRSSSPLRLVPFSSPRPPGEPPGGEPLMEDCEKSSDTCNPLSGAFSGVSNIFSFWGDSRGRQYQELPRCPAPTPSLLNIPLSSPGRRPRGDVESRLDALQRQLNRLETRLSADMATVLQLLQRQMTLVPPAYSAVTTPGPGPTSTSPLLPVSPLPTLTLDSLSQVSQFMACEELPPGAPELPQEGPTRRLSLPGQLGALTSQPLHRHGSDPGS

The assay addresses human ether-à-go-go-related gene (hERG) potassium channel (human, UniProt Q12809). Kind of assay: primary screen, population patch clamp on CHO cells stably expressing hERG.
Consider `O=S(=O)(N1CCOCC1)n1nnc2ccccc21`, for which the “hERG current change (%, negative = inhibition) at 10uM” value is 6.66%.
Take `O=c1c2c(nc3nc(COc4ccccc4)[nH]n13)CCC2`: the “hERG current change (%, negative = inhibition) at 10uM” value is on record as -3.16%.
Take `CN(C(=O)COC(=O)c1c2c(nc3ccccc13)/C(=C/c1cccc([N+](=O)[O-])c1)CCC2)C1CCS(=O)(=O)C1` (stereo not shown): the “hERG current change (%, negative = inhibition) at 10uM” value was 2.15%.
Take `COc1ccc(O)c(C2=Nc3ccccc3N=C(c3ccco3)C2)c1`: the “hERG current change (%, negative = inhibition) at 10uM” value is on record as 6.14%.
Regarding `C=CCn1c(Cc2c(C)[nH]c3ccccc23)nnc1SCC(=O)NCc1ccc(F)cc1`, the “hERG current change (%, negative = inhibition) at 10uM” value was -26.8%.
On to `COc1cccc(Nc2nc3ccccc3n2C(C)C)c1`, for which the “hERG current change (%, negative = inhibition) at 10uM” value came out at 24.1%.
In the case of `CCN(CC)C(=O)CSc1nc(N)c(C#N)c(-c2cccs2)c1C#N` it was 15.5%; in that of `COc1ccc(NC(=O)CSc2ncccc2C(=O)OC(C)C)cc1OC`, 2.51%.
With `C/C(=N/NS(=O)(=O)c1ccc(C)c(C)c1)c1ccncc1`, the “hERG current change (%, negative = inhibition) at 10uM” value is reported as 11.5%.
As for `COc1ccccc1N1CCN(C(=O)CSc2ccc3c(C)cc(C)nc3n2)CC1`, the “hERG current change (%, negative = inhibition) at 10uM” value is -19.7%.
As to `CCC(=O)Nc1ccc(Cl)c(NC(=S)NC(=O)c2cc3ccccc3o2)c1`, the “hERG current change (%, negative = inhibition) at 10uM” value is listed as -3.18%.
In the case of `CC1CCN(CC(O)COc2ccc(OCC(O)CN3CCC(C)CC3)cc2)CC1` (stereo not shown) it was 3.84%; in that of `CCOc1cc(C(N)=O)cc(Br)c1OCc1ccccc1`, -7.96%; in that of `CCOC(=O)c1c(/N=C/N(C)C)sc(C(=O)OC)c1C`, 0.173%.
For `Cc1ccc(S(=O)(=O)N/N=C\c2ccc(Cl)c([N+](=O)[O-])c2)cc1`, the “hERG current change (%, negative = inhibition) at 10uM” value was 18.4%.
For `CCC(=O)N1CCc2cc(OC)c(OC)cc2C1COc1ccc(F)cc1` (stereo not shown), the “hERG current change (%, negative = inhibition) at 10uM” value was -22.3%.
In the case of `Cl.N/C(=N\N=C/c1ccc(F)cc1)N/N=C\c1ccc(F)cc1` it was -44.4%; in that of `CCOc1cc(/C=N\O)cc(Cl)c1OCC`, 6.77%.
For the compound `O=C(Cn1cnc2c(oc3nc4c(cc32)CCCC4)c1=O)Nc1ccccc1`, the “hERG current change (%, negative = inhibition) at 10uM” value amounted to 17.3%.
For `Oc1ccc(-c2nc(-c3ccc(O)c(O)c3)cs2)cc1`, the “hERG current change (%, negative = inhibition) at 10uM” value is -5.31%.
As to `CC1CCCCN1C(=O)CSc1nnc(-c2ccco2)n1C` (stereo not shown), the “hERG current change (%, negative = inhibition) at 10uM” value amounted to 4.88%.
Regarding `CC1CCCN(S(=O)(=O)c2cccc(C(=O)NCc3ccco3)c2)C1` (stereo not shown), the “hERG current change (%, negative = inhibition) at 10uM” value is given as -26.4%.
Consider `CC1CCCCC1Nc1nc2ccc(Cl)cc2n2cnnc12` (stereo not shown), for which the “hERG current change (%, negative = inhibition) at 10uM” value is -12.4%.
Turning to `O=C(NCCN1CCOCC1)C(=O)NCC1OCCN1S(=O)(=O)c1ccccc1` (stereo not shown), the “hERG current change (%, negative = inhibition) at 10uM” value was found to be 9.65%.
For the compound `O=c1cc2c(nn1Cc1c(Cl)cccc1Cl)-c1ccccc1CC2`, the “hERG current change (%, negative = inhibition) at 10uM” value came out at 4.29%.
